# Some of the results follow.
# B1: AFL5 (Aspergillus fumigatus), Q4WB00 (protein)
# chain: MDNFMEMTKKLGHQPELLRLRALDATYDDALEGKLVVAPLDMSEPGKKILDSGTADGTWLRNVRSKQSVPHDYYGSDVEGELFPKDPDGITYFAHSFKDPWPQQYLGFFDLVHIRGSLAGSAPEGPAPVIQNLTTLLKPGGWVQLMEMNAFSPPPNGPAMTDFAKMASEMFTGIGVGDFANNNKSMLEDAGLKNVQEKRVIVNLGKKAKPELHDQSIHGVTGPIVPLTSVARTVKSSFTGEQLDALPARVKEELETEGGQVEMIIAFGQKA
# Legend:
# Test in all cases: glycan array binding signal (z-score within array); higher = stronger binding
# Conditions in all cases: glycan notation: IUPAC condensed, linker removed
# [1] = target: Fuc(a1-3)[Gal(b1-4)]GlcNAc(b1-3)Gal(b1-3)[Fuc(a1-4)]GlcNAc
# How it was run: (§1)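 Columns mapping to the same glycan were averaged after glycan names were converted to IUPAC-condensed notation. The data come from 3228 arrays in the Consortium for Functional Glycomics database, limited to those with an available protein sequence. Binding is reported as a within-array Z-score averaged across arrays of one protein sequence and across linkers.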
# [2] = target: Fuc(a1-3)[Gal(b1-4)]GlcNAc(b1-3)Gal(b1-4)[Fuc(a1-3)]GlcNAc
# How it was run: as §1
# [3] = target: Fuc(a1-3)[Gal(b1-4)]GlcNAc(b1-3)Gal(b1-4)[Fuc(a1-3)]GlcNAc(b1-3)Gal(b1-4)[Fuc(a1-3)]GlcNAc
# How it was run: as §1
# [4] = target: Fuc(a1-3)[Gal(b1-4)]GlcNAc(b1-3)GalNAc
# How it was run: as §1
# [5] = target: Fuc(a1-3)[Gal(b1-4)]GlcNAc(b1-6)GalNAc
# How it was run: as §1
# [6] = target: Fuc(a1-3)[Gal(b1-4)]GlcNAc(b1-6)[Gal(b1-3)GlcNAc(b1-3)]Gal(b1-4)Glc
# How it was run: as §1
# [7] = target: Fuc(a1-3)[Gal(b1-4)]GlcNAc6S
# How it was run: as §1
# [8] = target: Fuc(a1-3)[Gal3S(b1-4)]Glc
# How it was run: as §1
# [9] = target: Fuc(a1-3)[Gal3S(b1-4)]GlcNAc
# How it was run: as §1
# [10] = target: Fuc(a1-3)[Gal3S(b1-4)]GlcNAc6S
# How it was run: as §1
# [11] = target: Fuc(a1-3)[GalNAc(b1-4)]GlcNAc
# How it was run: as §1
# [12] = target: Fuc(a1-3)[GalNAc(b1-4)]GlcNAc6S
# How it was run: as §1
# Fuc(a1-4)GlcNAc = target: Fuc(a1-4)GlcNAc
# How it was run: as §1
# Fuc(b1-3)GlcNAc = target: Fuc(b1-3)GlcNAc
# How it was run: as §1
# Gal(a1-2)Gal = target: Gal(a1-2)Gal
# How it was run: as §1
# Gal(a1-3)Gal = target: Gal(a1-3)Gal
# How it was run: as §1
# Gal(a1-3)Gal(b1-3)GlcNAc = target: Gal(a1-3)Gal(b1-3)GlcNAc
# How it was run: as §1
# [13] = target: Gal(a1-3)Gal(b1-3)GlcNAc(b1-2)Man
# How it was run: as §1
# [14] = target: Gal(a1-3)Gal(b1-3)GlcNAc(b1-2)Man(a1-3)[Gal(a1-3)Gal(b1-3)GlcNAc(b1-2)Man(a1-6)]Man(b1-4)GlcNAc(b1-4)GlcNAc
# How it was run: as §1
# [15] = target: Gal(a1-3)Gal(b1-3)GlcNAc(b1-3)GalNAc
# How it was run: as §1
# [16] = target: Gal(a1-3)Gal(b1-3)GlcNAc(b1-6)GalNAc
# How it was run: as §1
# [17] = target: Gal(a1-3)Gal(b1-3)[Fuc(a1-4)]GlcNAc(b1-2)Man(a1-3)[Gal(a1-3)Gal(b1-3)[Fuc(a1-4)]GlcNAc(b1-2)Man(a1-6)]Man(b1-4)GlcNAc(b1-4)GlcNAc
# How it was run: as §1
# Gal(a1-3)Gal(b1-4)Glc = target: Gal(a1-3)Gal(b1-4)Glc
# How it was run: as §1
# Gal(a1-3)Gal(b1-4)GlcNAc = target: Gal(a1-3)Gal(b1-4)GlcNAc
# How it was run: as §1
# [18] = target: Gal(a1-3)Gal(b1-4)GlcNAc(b1-2)Man
# How it was run: as §1
# [19] = target: Gal(a1-3)Gal(b1-4)GlcNAc(b1-2)Man(a1-3)[Gal(a1-3)Gal(b1-4)GlcNAc(b1-2)Man(a1-6)]Man(b1-4)GlcNAc(b1-4)GlcNAc
# How it was run: as §1
# [20] = target: Gal(a1-3)Gal(b1-4)GlcNAc(b1-3)GalNAc
# How it was run: as §1
# [21] = target: Gal(a1-3)Gal(b1-4)GlcNAc(b1-6)GalNAc
# How it was run: as §1
# [22] = target: Gal(a1-3)Gal(b1-4)[Fuc(a1-3)]GlcNAc
# How it was run: as §1
# [23] = target: Gal(a1-3)Gal(b1-4)[Fuc(a1-3)]GlcNAc(b1-2)Man(a1-3)[Gal(a1-3)Gal(b1-4)[Fuc(a1-3)]GlcNAc(b1-2)Man(a1-6)]Man(b1-4)GlcNAc(b1-4)GlcNAc
# How it was run: as §1
# Gal(a1-3)GalNAc = target: Gal(a1-3)GalNAc
# How it was run: as §1
# [24] = target: Gal(a1-3)[Gal(a1-4)]Gal(b1-4)GlcNAc
# How it was run: as §1
# [25] = target: Gal(a1-4)Gal(b1-3)GlcNAc(b1-2)Man(a1-3)[Gal(a1-4)Gal(b1-3)GlcNAc(b1-2)Man(a1-6)]Man(b1-4)GlcNAc(b1-4)GlcNAc
# How it was run: as §1
# Gal(a1-4)Gal(b1-4)Glc = target: Gal(a1-4)Gal(b1-4)Glc
# How it was run: as §1
# Gal(a1-4)Gal(b1-4)GlcNAc = target: Gal(a1-4)Gal(b1-4)GlcNAc
# How it was run: as §1
# [26] = target: Gal(a1-4)Gal(b1-4)GlcNAc(b1-2)Man(a1-3)[Gal(a1-4)Gal(b1-4)GlcNAc(b1-2)Man(a1-6)]Man(b1-4)GlcNAc(b1-4)GlcNAc
# How it was run: as §1
# [27] = target: Gal(a1-4)Gal(b1-4)GlcNAc(b1-3)Gal(b1-4)Glc
# How it was run: as §1
# Gal(a1-4)GlcNAc = target: Gal(a1-4)GlcNAc
# How it was run: as §1
binder,measurement,setting,value
B1,glycan array binding signal (z-score),[1],-0.27
same,glycan array binding signal (z-score),[2],-0.011
same,glycan array binding signal (z-score),[3],-0.509
same,glycan array binding signal (z-score),[4],-0.016
same,glycan array binding signal (z-score),[5],-0.3
same,glycan array binding signal (z-score),[6],0.59
same,glycan array binding signal (z-score),[7],-0.084
same,glycan array binding signal (z-score),[8],0.237
same,glycan array binding signal (z-score),[9],0.045
same,glycan array binding signal (z-score),[10],0.356
same,glycan array binding signal (z-score),[11],0.094
same,glycan array binding signal (z-score),[12],0.169
same,glycan array binding signal (z-score),Fuc(a1-4)GlcNAc,-0.245
same,glycan array binding signal (z-score),Fuc(b1-3)GlcNAc,0.113
same,glycan array binding signal (z-score),Gal(a1-2)Gal,-0.725
same,glycan array binding signal (z-score),Gal(a1-3)Gal,0.258
same,glycan array binding signal (z-score),Gal(a1-3)Gal(b1-3)GlcNAc,-0.285
same,glycan array binding signal (z-score),[13],-0.35
same,glycan array binding signal (z-score),[14],-0.1
same,glycan array binding signal (z-score),[15],-0.056
same,glycan array binding signal (z-score),[16],-0.289
same,glycan array binding signal (z-score),[17],0.159
same,glycan array binding signal (z-score),Gal(a1-3)Gal(b1-4)Glc,-0.149
same,glycan array binding signal (z-score),Gal(a1-3)Gal(b1-4)GlcNAc,-0.152
same,glycan array binding signal (z-score),[18],-0.183
same,glycan array binding signal (z-score),[19],0.997
same,glycan array binding signal (z-score),[20],-0.442
same,glycan array binding signal (z-score),[21],-0.748
same,glycan array binding signal (z-score),[22],21.5
same,glycan array binding signal (z-score),[23],0.707
same,glycan array binding signal (z-score),Gal(a1-3)GalNAc,-0.37
same,glycan array binding signal (z-score),[24],0.364
same,glycan array binding signal (z-score),[25],1.13
same,glycan array binding signal (z-score),Gal(a1-4)Gal(b1-4)Glc,-0.237
same,glycan array binding signal (z-score),Gal(a1-4)Gal(b1-4)GlcNAc,0.201
same,glycan array binding signal (z-score),[26],0.301
same,glycan array binding signal (z-score),[27],-0.288
same,glycan array binding signal (z-score),Gal(a1-4)GlcNAc,-0.243
